# In all, about 33,000 sequences were measured (“E-score (-0.5 to 0.5)”: median about -0.013, highest 2% from about 0.3 on). The list shows a part of the results.
# Molecular target: T1, Msn1 (UniProt P22148)
# T1 sequence: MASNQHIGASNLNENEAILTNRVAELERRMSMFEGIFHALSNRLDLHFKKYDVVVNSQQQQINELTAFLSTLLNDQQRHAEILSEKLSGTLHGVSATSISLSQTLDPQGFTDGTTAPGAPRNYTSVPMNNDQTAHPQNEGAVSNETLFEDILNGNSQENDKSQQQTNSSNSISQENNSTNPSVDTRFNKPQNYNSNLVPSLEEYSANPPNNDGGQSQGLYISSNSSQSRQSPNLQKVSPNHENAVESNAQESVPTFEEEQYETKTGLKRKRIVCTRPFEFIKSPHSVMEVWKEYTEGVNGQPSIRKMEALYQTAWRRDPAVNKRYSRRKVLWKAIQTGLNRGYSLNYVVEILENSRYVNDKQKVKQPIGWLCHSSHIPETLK
# Assay: PBM E-score (8-mer binding enrichment) (E-score (-0.5 to 0.5)); higher = stronger / more preferred TF binding; most listed sequences are background and not binding sites
# Conditions: protein concentration: 200 nM; construct: GST-full length
# Procedure, shortened: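 Each ungapped eight-base word and its reverse complement, pooled, received an E-score from the Universal PBM Analysis Suite. Underlying scans, normalised with masliner, recorded fluorescent anti-GST bound to GST-tagged yeast transcription factors. These were applied at about 100-200 nM to universal all-10-mer Agilent arrays double-stranded by primer extension.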
row,Sequence,PBM E-score
1,AACAATGT,0.161
2,CCGCGCAA,0.00972
3,CGATTCGA,0.134
4,ACACTAGT,0.0855
5,AATGCCCC,-0.197
6,CGACGCTC,-0.0884
7,GTTTGCAA,0.0769
8,AGGTTGTC,0.085
9,CTGGGCCC,-0.252
10,CCTAGTCG,-0.0499
11,CTACGAGC,-0.118
12,ACGCTGTC,-0.18
13,AAGGCCTC,-0.18
14,ATATTTTC,0.226
15,ACTCAAGA,0.0683
16,CTGCACAC,-0.225
17,AGATAGCG,-0.188
18,AACGACCG,-0.00986
19,AGTAAATA,0.196
20,ATCTCTGC,0.0623
21,GTGCAGTA,-0.0226
22,GAGCTGGA,-0.145
23,GCCAACAC,-0.00952
24,CAATCTTC,0.0437
25,TGGTTTAA,0.147

row,Sequence,PBM E-score
1,ATCTCGTG,0.0208
2,ATTCCCCC,-0.325
3,ATCACTCC,-0.0871
4,ATACGCAG,0.0264
5,CACGCCCC,-0.222
6,GATAGCTA,-0.113
7,CGACTGAC,-0.0843
8,CAAATATC,0.216
9,GTACCAGA,0.0666
10,ACGCTTCT,-0.0777
11,CCCGTACA,-0.119
12,GGAGTTAA,0.0335
13,ATCAGTGA,-0.119
14,AAAATGCT,0.0679
15,CGATGTCC,0.436
16,CGTGGTCC,-0.119
17,CCTATGAC,-0.0574
18,AGAAGGTA,0.059
19,AGTTGAGC,-0.0632
20,CCACAGGG,-0.183
21,CTGGCGAA,-0.23
22,AAGTCGAG,-0.126
23,CAGTCTTA,-0.0789
24,GGCCCGCC,-0.293
25,GTTTAGAA,0.104

row,Sequence,PBM E-score
1,GTTCATTA,0.097
2,AACTAAGC,0.0314
3,GAGACCCA,-0.00742
4,ACCAGGTG,-0.292
5,GAAAATAA,0.0878
6,CATTGCTC,-0.0154
7,ATTCGTTC,0.171
8,GAAAACTC,0.0204
9,ATCTGAGC,0.0992
10,AGAAGGAC,0.175
11,CTGAGATC,-0.0493
12,ATTTCAAC,0.207
13,CGAGGCAG,-0.0958
14,TCATGCGA,-0.0309
15,CTCCGAGA,0.152
16,TACCTCTA,0.0695
17,CAGGGAGA,-0.162
18,ACGACGGA,0.182
19,AAGTTGGG,-0.00987
20,AACTCTGC,-0.136
21,GGAAACTA,-0.0538
22,ATTTCGCG,0.136
23,CATATTGG,0.206
24,CGATAGAA,0.0218
25,CTTGGCGC,-0.153

row,Sequence,PBM E-score
1,CAGTTCGC,-0.0367
2,GAAATCAA,0.00318
3,AATAAAGC,0.116
4,AGGATCGG,-0.173
5,AGACCCGC,-0.0145
6,TAAATCAA,0.0886
7,GATCAGCA,0.0297
8,ACCGGAGG,-0.209
9,AGACCCCA,-0.239
10,ACGGATCG,-0.0717
11,TGAGCCCA,-0.131
12,ATGAGACG,-0.109
13,ACAGAGGA,-0.0275
14,ACGGTCTA,-0.00545
15,TGCTTACA,-0.0339
16,ACGTATTG,-0.0138
17,GCACGGAC,0.166
18,AGCAACAG,-0.0183
19,CGCGTCTA,0.129
20,GCTCCGGA,0.00188
21,ACAAGAGT,0.09
22,ATAAGAAG,0.0434
23,ATGTTCAG,0.0111
24,CACTGTAA,0.0549
25,CTGACACA,0.0572

row,Sequence,PBM E-score
1,ATACGCCC,-0.197
2,GAGGGGGC,-0.444
3,CATTACTA,-0.115
4,AGGTTCTA,-0.173
5,CAAGCAGC,-0.0813
6,ATCCACGA,0.0751
7,CGGCAATA,0.121
8,TAGAACTA,0.0187
9,AGCCAGGC,-0.0733
10,CGAATTCA,-0.0273
11,AAATGGCG,0.122
12,CTGGATCA,-0.0898
13,CCTACGTA,0.0633
14,AGCAATGA,0.107
15,GGAGTTCA,0.0298
16,TGATCACA,-0.13
17,AGCAACGG,0.0668
18,ATCGGTTG,0.0638
19,ATGAGGCG,-0.136
20,ACGATAGT,0.0402
21,CTGGGGGC,-0.417
22,CCAAACTA,0.119
23,CGGAAAGA,0.06
24,GAGCTGCC,-0.275
25,AACGAACT,-0.0401

row,Sequence,PBM E-score
1,TCGTCGCA,-0.0341
2,CCATAACC,-0.0962
3,GACACTGC,0.13
4,CTGGTGTC,-0.0278
5,CACAATCC,0.119
6,AAGGAGCA,-0.109
7,CTCGACAG,-0.14
8,ACTCACGA,0.0549
9,ATTTTTAG,-0.0546
10,CTAGGGGA,-0.307
11,CAGTCACA,-0.0815
12,AATCTCAT,0.0888
13,AGCCAAAT,0.0175
14,AAATGTCG,0.412
15,CCGTCTGC,0.0675
16,ACAACGAG,0.0375
17,ATGCGGTA,-0.01
18,TATTACAA,0.217
19,ACCTGAAA,0.0221
20,AAGGGAGC,-0.124
21,CAGCGGTC,-0.172
22,ACTTCCGG,0.131
23,GATAAAGC,0.0285
24,AAGCATGT,0.182
25,CCCAGTCA,-0.227

row,Sequence,PBM E-score
1,CCGGATCC,-0.0654
2,ACCTGACA,-0.0239
3,GGGTGTAC,-0.0378
4,ATTACTGG,-0.119
5,ACTATGTG,-0.0783
6,GTAGTCGA,0.119
7,AGTACATG,0.266
8,CGCGAAGC,0.00204
9,CGATCACG,0.11
10,CGGCCACG,-0.189
11,ACAGTCTC,-0.244
12,AGCGCAGG,-0.264
13,ACTTAGAG,-0.208
14,CGGACTAC,-0.0515
15,CAGCAGGC,-0.0689
16,GCACCTTA,0.00327
17,CAGGATTC,0.0496
18,GGAATTGA,0.0274
19,ACTAATGA,0.07
20,GGGTTACA,-0.0367
21,ACGTATTA,0.157
22,CACTCGTA,-0.138

# — the supplement of paper PMC3334620
